Where a name gives a salt, the structure may show the parent alone. ± gives the standard deviation of the averaged measurements. Over roughly 2,000 compounds, “relative cell viability vs DMSO, compound + 0.2 uM CuET” has its median near 1; the lowest 2% begin near 0.25. The list shows a part of the results.

For this test, the system named is TE10. Description: relative cell viability vs DMSO, compound + 0.2 uM CuET (fraction); TE10 is an esophageal squamous carcinoma line; higher = less cytotoxic. The following applies: 2 µM; co-treatment: CuET (bis(diethyldithiocarbamate)copper) 0.2 uM; 48 h. The method, then:
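TE10 ESCC cells (1,000/well, 384-well plates) were treated with Selleck bioactive library compounds at 2 uM combined with 0.2 uM CuET (copper diethyldithiocarbamate) for 48 h. Viability was read by CellTiter-Glo and expressed relative to DMSO wells. Two technical replicates (A, B).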
Take `NC(=O)c1ccc(-c2nc(-c3ccccn3)c(-c3ccc4c(c3)OCO4)[nH]2)cc1`: the relative cell viability is 1.05 ± 0.12.

For the compound `Cc1cn(-c2cc(NC(=O)c3ccc(C)c(Nc4nccc(-c5cccnc5)n4)c3)cc(C(F)(F)F)c2)cn1` [Nilotinib (AMN-107)], the relative cell viability came out at 0.83 ± 0.047.

Consider `CN/C(=N\CCSCc1nc[nH]c1C)NC#N` [Cimetidine], for which the relative cell viability amounted to 0.9836 ± 0.0097.

On to `COc1ccc(C2=N[C@@H](c3ccc(Cl)cc3)[C@@H](c3ccc(Cl)cc3)N2C(=O)N2CCNC(=O)C2)c(OC(C)C)c1` [Nutlin-3], for which the relative cell viability is 1.12 ± 0.02.

Turning to `C/C(=C\C(=O)OCCCCCCCCC(=O)O)C[C@@H]1OC[C@H](C[C@@H]2O[C@H]2[C@@H](C)[C@H](C)O)[C@@H](O)[C@H]1O` [Mupirocin], the relative cell viability was 1.44 ± 0.062.

As to `C=C1c2cccc(O)c2C(O)=C2C(=O)[C@]3(O)C(O)=C(C(N)=O)C(=O)[C@@H](N(C)C)[C@@H]3[C@@H](O)[C@H]12` [Methacycline HCl], the relative cell viability is 1.43 ± 0.15.

Take `O=C(O)c1cc(/N=N/c2ccc(S(=O)(=O)Nc3ccccn3)cc2)ccc1O` [Sulfasalazine]: the relative cell viability is 1.13 ± 0.078.

Take `NC(=O)c1ccc(I)c([N+](=O)[O-])c1` [Iniparib (BSI-201)]: the relative cell viability came out at 1.07 ± 0.099.

Take `CCOC(=O)[C@H](CCc1ccccc1)N[C@@H](C)C(=O)N1C(=O)N(C)C[C@H]1C(=O)O` [Imidapril HCl]: the relative cell viability was 1.07 ± 0.028.

As for `C[C@@H]1C[C@H]2[C@@H]3CCC4=CC(=O)C=C[C@]4(C)[C@@]3(Cl)[C@@H](O)C[C@]2(C)[C@@]1(OC(=O)c1ccco1)C(=O)CCl` [Mometasone furoate], the relative cell viability was 0.844 ± 0.016.

In the case of `C[C@]12CCC3=C4CCC(=O)C=C4CC[C@H]3[C@@H]1CC[C@@]2(O)CC#N` [Dienogest], the relative cell viability is 1.25 ± 0.074.

For `CS(=O)(=O)c1ccc(-c2nnc(/C=C/c3nnc(-c4ccc(C#N)cc4)o3)n2-c2ccccc2Cl)nc1`, the relative cell viability worked out at 1.08 ± 0.1.

As for `c1coc(CNc2ncnc3[nH]cnc23)c1` [Kinetin], the relative cell viability was determined as 1.07 ± 0.03.

`COc1cc2ncnc(Nc3cccc(Cl)c3)c2cc1OC` [AG-1478 (Tyrphostin AG-1478)]: the relative cell viability stood at 1.1 ± 0.046.

In the case of `O=c1oc2cc(O)ccc2s1` [Tioxolone], the relative cell viability turned out to be 0.895 ± 0.016.

On to `O=c1ccn([C@@H]2O[C@H](CO)[C@@H](O)[C@H]2O)c(=O)[nH]1` [Uridine], for which the relative cell viability was 1.23 ± 0.079.

For the compound `CC(C)n1c(/C=C/C(O)CC(O)CC(=O)O)c(-c2ccc(F)cc2)c2ccccc21` (centres undefined) [Fluvastatin Sodium], the relative cell viability was 0.89 ± 0.063.

On to `CCCCNc1cc(C(=O)O)cc(S(N)(=O)=O)c1Oc1ccccc1` [Bumetanide], for which the relative cell viability was determined as 1.44 ± 0.035.

Take `COC(=O)Nc1ccc(-c2nc(N3CCOCC3)c3cnn(C4CCN(C(=O)OC)CC4)c3n2)cc1`: the relative cell viability worked out at 0.785 ± 0.018.

Regarding `CNC[C@H](O)[C@@H](O)[C@H](O)[C@H](O)CO` [Meglumine], the relative cell viability was 1.029 ± 0.0058.

As for `COC(=O)N[C@H](C(=O)N[C@@H](Cc1ccccc1)[C@@H](O)CN(Cc1ccc(-c2ccccn2)cc1)NC(=O)[C@@H](NC(=O)OC)C(C)(C)C)C(C)(C)C` [Atazanavir Sulfate], the relative cell viability came to 1.08 ± 0.11.

Take `CCC[S+]([O-])c1ccc2[nH]c(NC(=O)OC)nc2c1` (centres undefined) [Albendazole Oxide]: the relative cell viability is 1.01 ± 0.017.

Regarding `NC(=O)OCC(COC(N)=O)c1ccccc1` [Felbamate], the relative cell viability was 1.18 ± 0.17.

Consider `Cc1ccnc(NS(=O)(=O)c2ccc(N)cc2)n1` [Sulfamerazine], for which the relative cell viability worked out at 1.04 ± 0.14.

With `OC(CC1c2ccccc2-c2cncn21)C1CCCCC1` (centres undefined), the relative cell viability was 1.13 ± 0.055.

Turning to `COc1ccc(C[C@H](N)C(=O)N[C@H]2[C@@H](O)[C@H](n3cnc4c(N(C)C)ncnc43)O[C@@H]2CO)cc1` [Puromycin 2HCl], the relative cell viability worked out at 0.249 ± 0.0061.

Consider `O=C(O)Cc1cccc(OCCCN(Cc2cccc(C(F)(F)F)c2Cl)CC(c2ccccc2)c2ccccc2)c1`, for which the relative cell viability amounted to 1.01 ± 0.068.

For `C[C@]1(c2nc3c(C(N)=O)cccc3[nH]2)CCCN1` [Veliparib (ABT-888)], the relative cell viability was found to be 0.754 ± 0.25.

On to `CC(=O)N[C@@H](CS)C(=O)O` [Acetylcysteine], for which the relative cell viability is 1.1 ± 0.052.

Regarding `COc1cc(C2Oc3cc([C@H]4Oc5cc(O)cc(O)c5C(=O)[C@@H]4O)ccc3OC2CO)ccc1O` (some centres undefined) [Silymarin], the relative cell viability is 0.988 ± 0.13.

With `COc1cc(C2Oc3cc([C@H]4Oc5cc(O)cc(O)c5C(=O)[C@@H]4O)ccc3OC2CO)ccc1O` (some centres undefined) [Silibinin], the relative cell viability came out at 1.08 ± 0.031.

With `O=c1cc(-c2ccccc2)oc2cc(O)c(O)c(O)c12` [Baicalein], the relative cell viability worked out at 0.838 ± 0.18.

For `CC[C@H](C)C(=O)O[C@H]1C[C@@H](C)C=C2C=C[C@H](C)[C@H](CC[C@@H]3C[C@@H](O)CC(=O)O3)[C@H]21` [Lovastatin], the relative cell viability is 0.991 ± 0.077.

As to `Clc1ccc(C(Cn2ccnc2)OCc2ccc(Sc3ccccc3)cc2)c(Cl)c1` (centres undefined) [Fenticonazole Nitrate], the relative cell viability stood at 0.793 ± 0.015.

On to `CCN(CC)CCOC(=O)c1ccc(N)cc1` [Procaine HCl], for which the relative cell viability is 1.23 ± 0.16.

Turning to `O=C1CCC[C@@H]2[C@H]3CCC[N+]4([O-])CCC[C@@H](CN12)[C@@H]34` (some centres undefined) [Oxymatrine], the relative cell viability is 1.18 ± 0.025.

On to `COc1cccc2cc(-c3nc([C@H]4CC[C@H](C(=O)O)CC4)n4ncnc(N)c34)[nH]c12`, for which the relative cell viability came to 0.747 ± 0.029.

`C[C@@H]1O[C@@H](OC[C@H]2O[C@@H](Oc3c(-c4ccc(OCCO)c(OCCO)c4)oc4cc(OCCO)cc(O)c4c3=O)[C@H](O)[C@@H](O)[C@@H]2O)[C@H](O)[C@H](O)[C@H]1O` [Troxerutin]: the relative cell viability amounted to 1.11 ± 0.042.

Take `CCN(CC)C(=O)/C(C#N)=C/c1cc(O)c(O)c([N+](=O)[O-])c1` [Entacapone]: the relative cell viability came out at 0.775 ± 0.061.

On to `N#Cc1ccc(COC[C@H]2O[C@@H](n3c(NCc4ccc(Cl)c(Cl)c4)nc4c(N)ncnc43)[C@H](O)[C@@H]2O)cc1`, for which the relative cell viability amounted to 0.939 ± 0.0025.

Turning to `C[C@]12C=CC(=O)C=C1CC[C@H]1[C@@H]3C[C@@H](O)[C@](O)(C(=O)CO)[C@@]3(C)C[C@H](O)[C@@]12F` [Triamcinolone], the relative cell viability came to 1.06 ± 0.053.

Take `CC1(C)O[C@@H]2C[C@H]3[C@@H]4CCC5=CC(=O)CC[C@]5(C)[C@@]4(F)[C@@H](O)C[C@]3(C)[C@]2(C(=O)CCl)O1` [Halcinonide]: the relative cell viability was determined as 0.905 ± 0.0084.

In the case of `CC(=O)O[C@H]1C[C@@H]2CC[C@@H]3[C@H](CC[C@@]4(C)[C@H]3C[C@H]([N+]3(C)CCCCC3)[C@@H]4OC(C)=O)[C@@]2(C)C[C@@H]1N1CCCCC1` [Vecuronium Bromide], the relative cell viability was determined as 1.38 ± 0.14.

As to `C[C@@H](O)[C@H]1C(=O)N2C(C(=O)O)=C(S[C@@H]3CN[C@H](C(=O)N(C)C)C3)[C@H](C)[C@H]12` [Meropenem], the relative cell viability came out at 1.15 ± 0.065.

The record behind these values is the supplement of paper PMC10670038.
